± gives the uncertainty stated by the source. The source holds more than one record for some entries. The other results are left out here. The source may hold further records. Results that share an entry repeat one measurement in other runs, samples, wells, individuals or studies. A tag in brackets gives the origin of a value. Letters hold for one entry only. Marks such as (2×) give the number of equal values in this list.

Consider `COc1ccccc1N`, for which the viscosity reads like this: (303.15 K, 100 kPa) 4.922 ± 0.068 mPa·s [study A] and 4.923 ± 0.2 mPa·s [study B] and 4.92 ± 0.13 mPa·s [study C] and 4.923 ± 0.15 mPa·s [study D] and 4.923 ± 0.2 mPa·s [study E] and 4.922 ± 0.1 mPa·s [study F]; (308.15 K, 100 kPa) 4.512 ± 0.067 mPa·s [study A] and 4.571 ± 0.19 mPa·s [study B] and 4.51 ± 0.12 mPa·s [study C] and 4.571 ± 0.14 mPa·s [study D] and 4.571 ± 0.18 mPa·s [study E] and 4.512 ± 0.095 mPa·s [study F]; (313.15 K, 100 kPa) 4.185 ± 0.066 mPa·s [study A] and 4.217 ± 0.17 mPa·s [study B] and 4.19 ± 0.11 mPa·s [study C] and 4.217 ± 0.13 mPa·s [study D] and 4.217 ± 0.17 mPa·s [study E] and 4.185 ± 0.088 mPa·s [study F]; (318.15 K, 100 kPa) 3.883 ± 0.065 mPa·s [study A] and 3.883 ± 0.16 mPa·s [study B] and 3.88 ± 0.1 mPa·s [study C] and 3.886 ± 0.082 mPa·s [study D].

For the compound `C1CCCCC1`, the viscosity runs as follows: (298.15 K, 101 kPa) 0.8824 ± 0.023 mPa·s, 0.9287 ± 0.012 mPa·s, 0.9006 ± 0.0057 mPa·s, 0.8876 ± 0.023 mPa·s, 0.8859 ± 0.011 mPa·s, 0.8887 ± 0.0088 mPa·s, 0.888 ± 0.009 mPa·s, 0.877 ± 0.023 mPa·s, 0.8829 ± 0.011 mPa·s, 0.889 ± 0.009 mPa·s [several studies]; (298.15 K, 101.33 kPa) 0.8856 ± 0.023 mPa·s, 0.869 ± 0.023 mPa·s, 0.9009 ± 0.011 mPa·s, 0.9062 ± 0.0077 mPa·s, 0.883 ± 0.006 mPa·s, 0.876 ± 0.011 mPa·s, 0.877 ± 0.022 mPa·s, 0.814 ± 0.021 mPa·s, 0.8958 ± 0.0086 mPa·s [several studies]; (303 K, 101 kPa) 0.93 ± 0.02 mPa·s [study A] and 0.8047 ± 0.0055 mPa·s, 0.8044 ± 0.0055 mPa·s, 0.805 ± 0.0055 mPa·s, 0.8049 ± 0.0055 mPa·s [study B]; (303.15 K, 101 kPa) 0.819 ± 0.016 mPa·s (2×), 0.82 ± 0.007 mPa·s, 0.799 ± 0.01 mPa·s, 0.8195 ± 0.0091 mPa·s, 0.818 ± 0.008 mPa·s, 0.8192 ± 0.021 mPa·s, 0.786 ± 0.021 mPa·s, 0.819 ± 0.008 mPa·s, 0.7976 ± 0.0095 mPa·s, 0.8007 ± 0.012 mPa·s [several studies]; (303.15 K, 101.33 kPa) 0.751 ± 0.075 mPa·s [study A] and 0.702 ± 0.009 mPa·s [study B] and 0.804 ± 0.021 mPa·s [study C] and 0.749 ± 0.019 mPa·s [study D] and 0.8224 ± 0.0079 mPa·s [study E]; (308.15 K, 101 kPa) 0.763 ± 0.007 mPa·s [study A] and 0.753 ± 0.008 mPa·s [study B] and 0.7878 ± 0.0065 mPa·s [study C] and 0.7546 ± 0.02 mPa·s [study D] and 0.7558 ± 0.0081 mPa·s [study E] and 0.7634 ± 0.0049 mPa·s [study F]. Also, the viscosity is 0.757 ± 0.0096 mPa·s [study A] and 0.644 ± 0.009 mPa·s [study B] and 0.737 ± 0.019 mPa·s [study C] and 0.744 ± 0.005 mPa·s [study D] and 0.692 ± 0.018 mPa·s [study E] and 0.7575 ± 0.0074 mPa·s [study F] (308.15 K, 101.33 kPa); 0.81 ± 0.02 mPa·s [study A] and 0.6878 ± 0.0048 mPa·s, 0.6879 ± 0.0048 mPa·s, 0.6877 ± 0.0048 mPa·s, 0.687 ± 0.0048 mPa·s [study B] (313 K, 101 kPa).

As for `CCC(C)=O`, the viscosity (293.15 K, 101 kPa) is 0.4054 ± 0.0058 mPa·s [study A] and 0.397 ± 0.004 mPa·s [study B] and 0.411 ± 0.011 mPa·s [study C] and 0.428 ± 0.011 mPa·s [study D]; the viscosity (298.15 K, 101 kPa) is 0.404 ± 0.011 mPa·s, 0.379 ± 0.012 mPa·s, 0.3856 ± 0.0053 mPa·s, 0.3856 ± 0.0075 mPa·s, 0.3856 ± 0.0052 mPa·s (2×), 0.4 ± 0.0038 mPa·s, 0.4 ± 0.004 mPa·s, 0.39 ± 0.01 mPa·s, 0.4094 ± 0.023 mPa·s, 0.394 ± 0.0043 mPa·s [several studies]; the viscosity (303.15 K, 100 kPa) is 0.3827 ± 0.0061 mPa·s [study A] and 0.383 ± 0.016 mPa·s [study B] and 0.37 ± 0.04 mPa·s [study C] and 0.367 ± 0.005 mPa·s [study D]; the viscosity (303.15 K, 101 kPa) is 0.3712 ± 0.0055 mPa·s [study A] and 0.383 ± 0.019 mPa·s [study B] and 0.37 ± 0.01 mPa·s [study C] and 0.378 ± 0.004 mPa·s [study D] and 0.3885 ± 0.01 mPa·s [study E] and 0.367 ± 0.011 mPa·s [study F]; the viscosity (308.15 K, 101 kPa) was 0.3542 ± 0.0054 mPa·s [study A] and 0.344 ± 0.018 mPa·s [study B] and 0.3547 ± 0.0095 mPa·s [study C] and 0.355 ± 0.01 mPa·s [study D] and 0.344 ± 0.0048 mPa·s [study E] and 0.344 ± 0.0067 mPa·s [study F] and 0.344 ± 0.005 mPa·s [study G] and 0.344 ± 0.005 mPa·s [study H]; the viscosity (313.15 K, 100 kPa) was 0.3499 ± 0.0058 mPa·s [study A] and 0.304 ± 0.012 mPa·s [study B] and 0.34 ± 0.03 mPa·s [study C] and 0.333 ± 0.004 mPa·s [study D]. For the same compound, the viscosity reads like this: (313.15 K, 101 kPa) 0.3368 ± 0.0053 mPa·s [study A] and 0.326 ± 0.004 mPa·s [study B] and 0.349 ± 0.0091 mPa·s [study C] and 0.334 ± 0.011 mPa·s [study D]; (323.15 K, 101 kPa) 0.3036 ± 0.0051 mPa·s [study A] and 0.3148 ± 0.0036 mPa·s [study B] and 0.3203 ± 0.02 mPa·s [study C] and 0.306 ± 0.011 mPa·s [study D].

As for `COC(C)=O`, the viscosity was 0.385 ± 0.006 mPa·s [study A] and 0.388 ± 0.012 mPa·s [study B] and 0.391 ± 0.006 mPa·s [study C] and 0.391 ± 0.044 mPa·s [study D] and 0.364 ± 0.004 mPa·s [study E] (298.15 K, 101.33 kPa); 0.37 ± 0.031 mPa·s [study A] and 0.365 ± 0.022 mPa·s [study B] and 0.372 ± 0.01 mPa·s [study C] and 0.3863 ± 0.006 mPa·s [study D] and 0.3524 ± 0.0045 mPa·s [study E] and 0.3524 ± 0.0032 mPa·s [study F] and 0.37 ± 0.008 mPa·s [study G] (303.15 K, 101 kPa); 0.366 ± 0.006 mPa·s [study A] and 0.371 ± 0.011 mPa·s [study B] and 0.3442 ± 0.0033 mPa·s [study C] and 0.372 ± 0.006 mPa·s [study D] and 0.372 ± 0.042 mPa·s [study E] and 0.365 ± 0.003 mPa·s [study F] (303.15 K, 101.33 kPa); 0.352 ± 0.03 mPa·s [study A] and 0.349 ± 0.021 mPa·s [study B] and 0.354 ± 0.01 mPa·s [study C] and 0.3695 ± 0.0059 mPa·s [study D] and 0.33 ± 0.009 mPa·s [study E] and 0.357 ± 0.008 mPa·s [study F] (308.15 K, 101 kPa); 0.348 ± 0.006 mPa·s [study A] and 0.352 ± 0.011 mPa·s [study B] and 0.355 ± 0.006 mPa·s [study C] and 0.355 ± 0.041 mPa·s [study D] and 0.349 ± 0.003 mPa·s [study E] (308.15 K, 101.33 kPa).

The term viscosity denotes the resistance of a fluid to flow. Low readings indicate a thin fluid, high ones a thick fluid.

(Values after the CheMixHub viscosity set.)
